Data: PubChem BioAssay AID485344 (National Center for Advancing Translational Sciences (NCATS), 2010)
In all, about 340,000 compounds went through this assay and about 6,900 (2%) were called active. Rule as the data show it: active = inhibition above about 30%; inactive = below that, where a call was filed. The entries are a selection whose mix differs from that of the whole data set. Entries without a call were filed so in the source.

The compounds below were run against D(2) dopamine receptor (Homo sapiens) (UniProt P14416) (assay: HTS Assay for Allosteric Antagonists of the Human D2 Dopamine Receptor: Primary Screen for Antagonists). Conditions: HEK293 TREx D2 cells, calcium flux, dopamine EC80; at 10 µM; stronger effect = higher value.
Procedure, shortened: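 Calcium flux kinetic readout in an inducible HEK293 TREx D2 line plated overnight at 30 C. After 180 s compound exposure, an EC80 dopamine challenge follows with another 180 s kinetic read to detect antagonism.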
Also: 0% is about no effect.

Chain of UniProt P14416 (P14416 whole entry, looked up): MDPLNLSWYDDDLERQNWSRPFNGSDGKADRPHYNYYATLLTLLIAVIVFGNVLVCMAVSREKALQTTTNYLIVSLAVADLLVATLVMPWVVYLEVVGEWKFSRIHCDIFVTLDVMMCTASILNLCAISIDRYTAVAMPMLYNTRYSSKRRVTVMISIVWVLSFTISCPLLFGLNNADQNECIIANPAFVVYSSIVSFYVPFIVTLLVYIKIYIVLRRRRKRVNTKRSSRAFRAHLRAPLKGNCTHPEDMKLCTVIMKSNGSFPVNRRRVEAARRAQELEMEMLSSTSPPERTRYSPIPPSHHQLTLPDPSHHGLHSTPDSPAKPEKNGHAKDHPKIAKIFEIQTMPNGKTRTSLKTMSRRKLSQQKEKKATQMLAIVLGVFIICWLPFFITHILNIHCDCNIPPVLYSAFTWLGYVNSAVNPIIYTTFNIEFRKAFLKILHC

Row | Compound | inhibition
1 | Cc1cccc(CN2CCN(C(c3ccccc3)c3ccc(Cl)cc3)CC2)c1 (centres undefined) | active: 30.9%
2 | Cc1ccc(Cl)cc1N1CCN(C(=O)CCS(=O)(=O)c2ccc3c(c2)oc(=O)n3C)CC1 | 8.33%
3 | Cn1nc(C(=O)NCc2ccccc2)c2c1-c1ccccc1S(=O)(=O)C2 | 17.9%
4 | Nc1ccc(C(=O)N/N=C\C=C\c2cccc([N+](=O)[O-])c2)cc1 | active: 48%
5 | CCC(C(=O)NC1CCCCC1)n1c(SCc2cccc(F)c2)nc2ccncc21 (centres undefined) | 23.7%
6 | Cc1ccc(S(=O)(=O)C(CNS(=O)(=O)c2ccc(F)c(C(F)(F)F)c2)c2ccco2)cc1 (centres undefined) | -20.2%
7 | CCCCCCCC(=O)Oc1ccc(C(=O)Nc2cc(C)on2)cc1 | active: 37%
8 | CC(CNC(=O)C1CCN(C(=O)c2cc3sccc3n2C)CC1)c1ccccc1 (centres undefined) | -0.946%
9 | CCOc1ccc(CNCc2c(C(=O)O)n(Cc3ccccc3C)c3cc(OC)ccc23)cc1OC | 26.4%
10 | Nc1nc2ccc(C(=O)N3CCCCC3)cc2s1 | active: 51.2%
11 | CCOc1ccccc1Nc1sc(C(=O)c2ccc(Cl)cc2)c(N)c1S(=O)(=O)c1ccccc1 | -17.6%
12 | O=C(CSc1ncc2c(n1)-c1ccccc1N(Cc1ccc(Cl)cc1)S2(=O)=O)c1ccccc1 | 2.49%
13 | Cc1nnc(NC(=O)CSc2nc(C3CCCCC3)nc3ccccc23)s1 | active: 35.4%
14 | CCN(Cc1ccccc1)C(=O)Cn1ncc2c(=O)oc3ccc(C)cc3c21 | -19.4%
15 | Cc1cccc(N2CCN(C(=O)c3ccc4c(c3)N(Cc3cccc(Cl)c3)C(=O)c3ccccc3S4(=O)=O)CC2)c1C | 9.82%
16 | CCOc1ccc(NC(=O)CCc2nnc3n(C)c(=O)c4sccc4n23)cc1 | 11.3%
17 | CCOC(=O)C1CCN(c2ncnc3c2c(-c2ccccc2)cn3-c2ccc(Cl)cc2)CC1 | 23%
18 | CCOc1ccccc1CNS(=O)(=O)c1cc(-c2onc(C)c2C)ccc1OC | -4.65%
19 | CCOC(=O)c1c(C)[nH]c(C)c1S(=O)(=O)NCC(=O)NCc1ccccc1C | 13.1%
20 | CCC(=O)N1c2ccccc2CC1C(=O)N1CCN(c2ccccc2F)CC1 (centres undefined) | 9.51%
21 | Clc1ccccc1CSc1nc(NCCc2ccccc2)c2ccccc2n1 | 5.49%
22 | CCOc1ccccc1Oc1nc(C)nc2c1oc1ccccc12 | 10.7%
23 | N#Cc1c(C(F)(F)F)cc(-c2cccs2)nc1SCc1ccccc1F | -3.96%
24 | COc1ccc(OCCn2nnc3sc4c(c3c2=O)CCCC4)cc1 | -2.81%

Row | Compound | inhibition
25 | CCOc1ccc(-n2nc(CO)c(C(=O)NCC(C)O)n2)cc1 (centres undefined) | 16.2%
26 | COC(=O)c1cc2sccc2n1CC(=O)Nc1cc(Cl)ccc1OC | 16.4%
27 | Cc1cccc(C(=O)NNc2ncnc3c2cnn3-c2ccc(C)c(Cl)c2)c1 | 18.9%
28 | CC(CNC(=O)CCCn1c(=O)c2cccn2c2ccc(F)cc21)c1ccccc1 (centres undefined) | 6.11%
29 | Cc1ccc(-c2nc(CS(=O)CC(=O)NCCc3ccc(Cl)cc3)c(C)o2)cc1 (centres undefined) | -26.8%
30 | COc1cc(NC(=O)C2Cc3ccccc3N2C(=O)c2ccccc2)cc(OC)c1 (centres undefined) | -0.7%
31 | Nc1c(C(=O)NCc2ccc(Cl)cc2)sc2nc(-c3ccc(F)cc3)ccc12 | -2.13%
32 | CCc1ccc(Nc2sc(C(=O)c3ccc(F)cc3)c(N)c2S(=O)(=O)c2ccccc2)cc1 | 4.72%
33 | COc1ccc(OC)c(NC(=O)CCNS(=O)(=O)c2ccc3c(c2)oc(=O)n3C)c1 | -2.49%
34 | CCc1ccc(S(=O)(=O)c2cn(CC)c3cc(N4CCCCC4)c(F)cc3c2=O)cc1 | 15.8%
35 | COc1ccc2nc(NC(=O)c3cc(=O)c4cc(C)cc(C)c4o3)sc2c1 | 7.43%
36 | COc1cc(OC)c(NC(=O)C2CCN(S(=O)(=O)c3ccc4c(c3)oc(=O)n4C)CC2)cc1Cl | 0.491%
37 | Cc1ccc(CNC(=O)CN2CCN(Cc3ccc(F)cc3Cl)C2=O)cc1 | -25.5%
38 | O=C(CSc1nccn1Cc1ccco1)Nc1cc(C(F)(F)F)ccc1Cl | 11.9%
39 | O=C(c1ccc2c(Cl)c3c(nc2c1)CCCC3)N1CCN(c2cccc(C(F)(F)F)c2)CC1 | 20.4%
40 | CCN(c1ccccc1)c1nnc(NC(=O)Nc2ccc(Br)c(C)c2)s1 | 12.9%
41 | CSc1nnc2c3c4c(sc3nc(-n3nc(C)cc3C)n12)COC(C)(C)C4 | active: 48.4%
42 | O=C(CN1C(=O)COc2ccc(S(=O)(=O)N3CCCCCC3)cc21)N1CCN(c2ccccc2F)CC1 | 21.5%
43 | CCOc1ccc(CNC(=O)CCS(=O)(=O)c2cc3c4c(c2)CCN4C(=O)CC3)cc1OC | -1.51%
44 | CCOc1ccccc1C(=O)NCc1nc2cccnc2n1Cc1ccc(C)cc1 | 7.16%
45 | CCOc1cc(CNC(=O)c2ccc3c(c2)N(C)C(=O)C2CCCCN32)ccc1OC (centres undefined) | 4.42%
46 | O=C(CNC(=O)c1ccc(F)cc1)OCc1cc(=O)n2nc(C3CCCCC3)sc2n1 | 8.19%
47 | COc1ccc(OC)c(NC(=O)CN2CCCN(Cc3ccccc3Cl)S2(=O)=O)c1 | -5.28%
48 | CCN(CC)CCCn1c(=S)[nH]c2ncccc2c1=O | active: 47.8%

Row | Compound | inhibition
49 | Cc1ccc(N2CCN(C(=O)c3cnn(-c4ccc(C)c(C)c4)c3C3CCNCC3)CC2)c(C)c1 | -2.74%
50 | Cc1ccc(-n2ncc3c(NC4CCCCC4)ncnc32)cc1Cl | -2.02%
51 | COc1ccc(CNC(=O)CCCn2nc(C)c3c(C)n(-c4ccc(C)cc4)nc3c2=O)cc1OC | 7.97%
52 | Cc1cccc(N2CCN(C(=O)c3noc4c3CCCCC4)CC2)c1C | 4.75%
53 | COc1ccccc1NC(=O)c1cn(-c2ccccc2)nc1-c1ccccc1 | 23.7%
54 | Cc1cc(C(=O)C(=O)Nc2nncs2)c(C)n1-c1ccc(Cl)cc1 | 5.48%
55 | CCc1ccc(NC(=O)Cn2c(=O)n(-c3cc(OC)c(OC)c(OC)c3)c(=O)c3ccccc32)cc1 | -11.6%
56 | CC(NC(=O)c1ccc(F)cc1)c1nc2ccccc2[nH]1 (centres undefined) | -24%
57 | COc1ccc(N2CCN(C(=O)CNS(=O)(=O)c3ccc(Br)s3)CC2)cc1 | 16.9%
58 | N#Cc1nc(/C=C/c2ccc(F)cc2)oc1NCc1ccc(F)cc1 | 21.8%
59 | Cc1ccc(N(C)C(=O)CN2C(=O)CCc3cc(S(=O)(=O)N4CCOCC4)ccc32)cc1 | -0.479%
60 | O=C(c1ccc2c(c1)N(Cc1cccc(Cl)c1)C(=O)c1ccccc1S2=O)N1CCN(c2cccc(C(F)(F)F)c2)CC1 (centres undefined) | -3.18%
61 | O=C(NC1CC(=O)N(c2ccc(F)cc2)C1)c1ccc2c(c1)OCO2 (centres undefined) | 2.84%
62 | COc1ccccc1CNC(=O)CCn1cnc2ccccc2c1=O | 2.24%
63 | CCN1CCN(C(c2ccccc2Cl)c2c(O)cc(C)n(Cc3ccco3)c2=O)CC1 (centres undefined) | -9.44%
64 | Cn1c(=O)c2c(ncn2Cc2ccc(Cl)cc2)n(C)c1=O | 9.78%
65 | O=C(Cn1c(=O)n2nc(-c3cccc(F)c3)nc2c2ccccc21)N1CCN(c2ccc(F)cc2)CC1 | 16.2%
66 | O=c1cc(N2CCCCC2)c(-c2ccccc2)nn1Cc1c(Cl)cccc1Cl | active: 31.9%
67 | Cc1cccc(Cn2nnc3c(=O)[nH]c(C4CCCN(C(=O)c5ccccc5Cl)C4)nc32)c1 (centres undefined) | -4.69%
68 | COC(=O)c1cc(S(=O)(=O)NCCN2CCN(c3ccccc3F)CC2)c[nH]1 | active: 73.2%
69 | COc1cc(C(=O)NCc2nc3cccnc3n2Cc2ccc(C)cc2)cc(OC)c1OC | -1.4%
70 | Cc1cc(C)c(NS(=O)(=O)c2ccc(-c3coc(C)n3)cc2)c(C)c1 | 6.84%
71 | CC(=O)c1ccc(NC(=O)Cn2ncc3c4ccccc4n(Cc4ccccc4)c3c2=O)cc1 | -0.518%
72 | COc1ccc(N(C(=O)c2ccccc2)S(=O)(=O)c2ccc3c(c2)n(C)c(=O)n3C)cc1 | 12.3%

Row | Compound | inhibition
73 | O=C(NCc1ccc(Cl)cc1)C1CCN(S(=O)(=O)c2ccccc2)CC1 | -6.44%
74 | Cc1ccc(-n2c(=O)c3c(C)c(C)sc3n(Cc3ccc(F)cc3Cl)c2=O)cc1C | 11.9%
75 | COc1ccc(CCNC(=O)Cc2c(C)c3cc4c(C)coc4cc3oc2=O)cc1OC | -3.8%
76 | Oc1ccc(-c2nc3ccc(Cl)cn3c2Nc2ccc3c(c2)OCO3)cc1 | 3.86%
77 | CCOc1ccc(C2C(=O)N(C3CCCCC3)CC(=O)N2CCc2ccccc2)cc1OC (centres undefined) | -23.4%
78 | O=C(CNc1ccccc1)N/N=C/c1ccc2c(c1)OCO2 | active: 37.3%
79 | Cc1ccccc1Cn1c(=O)n(CC2CCC(C(=O)N3CCOCC3)CC2)c(=O)c2sccc21 (centres undefined) | -1.8%
80 | Cc1cc(C)c(S(=O)(=O)N2CCN(Cc3ccc4c(c3)OCO4)CC2)cc1C | 10.4%
81 | Cc1c(Cl)cccc1Nc1nn2c(=O)c3ccc(C(=O)NCCC4=CCCCC4)cc3nc2s1 | -1.63%
82 | CCCCCn1c(CNC(=O)c2ccccc2)nc2ccccc21 | -12.9%
83 | CCc1ccc(S(=O)(=O)NCc2nc3cccnc3n2Cc2cccc(OC)c2)cc1 | 18.5%
84 | CCN(CC)c1ccc(-n2nc3cc(C)c(NC(=O)c4ccccc4C)cc3n2)c(C)c1 | 20.8%
85 | CCOc1ccc(NC(=O)Cn2c(=O)n(CCCCC(=O)NCc3ccc4c(c3)OCO4)c(=O)c3ccccc32)cc1 | -14.1%
86 | COc1ccccc1-c1nn2c(=O)cc(CN3CCN(C(=O)/C=C/c4ccccc4)CC3)nc2s1 | 8.85%
87 | CN(C)c1ccc(Nc2nc3ccccc3n3nnnc23)cc1 | 12%
88 | COc1ccc(N2CCN(S(=O)(=O)c3ccc(-c4cnc(C5CC5)o4)cc3)CC2)cc1 | 8.05%
89 | COc1ccc(-c2c(-c3ccccc3)c(C(=O)C(=O)NCCCN(C)C)n3ccc4cc(OC)c(OC)cc4c23)cc1OC | active: 48.3%
90 | COc1cccc(CNC(=O)CN2C(=O)N(c3cccc(Cl)c3)S(=O)(=O)c3ccccc32)c1OC | 0.0887%
91 | COc1ccccc1CNC(=O)CSc1nc(=O)[nH]c2c1CCC2 | -13.3%
92 | CC(C)(C)CC(C)(C)c1ccc(OCC(=O)Nc2ccc(S(=O)(=O)Nc3ncccn3)cc2)cc1 | -4.54%
93 | Cc1ccc(C)c(N(C)C(=O)Cc2c(C(=O)O)[nH]c3ccc(Cl)cc23)c1 | 6.33%
94 | CCN1CCN(c2cc(C)c3cc(NC(=S)NCCCN4CCc5ccccc5C4)ccc3n2)CC1 | active: 52.6%
